Where “and” joins values, the source holds several entries; their conditions need not be identical. Identical values can stand only once. Out of some 390,000 compounds screened, about 17,000 (4.4%) were called active. Inconclusive results, whose numbers are uncertain, are shown with a selection of clear calls. Calls come from the whole dose curve; as a rule, active = well fitted inhibition curve with a large enough effect; inconclusive = small, poorly fitted or top-dose-only effect; inactive = no such curve, though single readings can be large or run the other way. Potencies of inconclusive entries are doubtful fits and often do not repeat.
target: Lysine-specific demethylase 4A (Homo sapiens) (UniProt O75164); assay: qHTS Assay for Inhibitors of JMJD2A-Tudor Domain; details: AlphaScreen JMJD2A-Tudor / H3K4me3 peptide binding; series mostly up to 114 µM; note: nearly all actives have a fitted effect of over 50% in size
Excerpt: JMJD2A is a jumonji-domain-containing lysine demethylase that uses Fe(II) together with 2-OG to effect oxidative demethylation of histones. Methylation is one of many […] modification that affect epigenetic transcription. […] It is proposed that the functions of JmjD2A binding to the histones, is to maintain marks after they are installed and to spread the modifications by […], establishing a self-propagating cycle for rapid methylation over a large area of chromatin. […] Thus, small molecule targeting of the JMJD2A-tudor domain interaction with its target methylhistone mark is expected to enable sophisticated experiments probing the fine regulatory pathways leading to selective demethylation of a given methyllysine locus based on the methylation state of adjacent histone marks. A quantitative high throughput AlphaScreen has been developed to identify small molecule inhibitors based on a protocol published by NCGC and SGC [4].
Although AlphaScreen has significant advantages with its utility in a variety of epigenetic target assays, the primary screening data provided in this deposition should be used with caution due to the prevalence of screening artifacts. The top compound concentration tested was high (>100uM) in this assay, which increases number of actives and potential artifacts. An AlphaScreen counterscreen is highly recommended to be run against any putative actives to eliminate non-specific artifacts. Alternatively, one can use other AlphaScreen assays in PubChem to filter out promiscuous hits.
[1] Lee, J. et al. Distinct binding modes specify the recognition of methylated histone H3K4 and H4K20 by JMJD2A-tudor. Nat Struct Mol Biol. 15(1); 109-11. 2008. PMID: 18084306
[2] Yasgar, et al. Compound Management for Quantitative High-Throughput Screening. JALA. 2008 Apr;13(2):79-89. PMID: 18496600
[3] Inglese, et al. Quantitative high-throughput screening: a titration-based approach that efficiently identifies biological activities in large chemical libraries. Proc Natl Acad Sci. 1;103(31):11473-8. 2006. PMID: 16864780
[4] Quinn et al. A homogeneous method for investigation of methyl-dependent protein-protein interactions in epigenetics. Nucleic Acids Res., 38(2):e11. 2010. PMID: […]
[5] Baell,Holloway. New substructure filters for removal of pan assay interference compounds (PAINS) from screening libraries and for their exclusion in bioassays. J Med Chem. 53(7):2719-40. 2010. PMID: 20131845
NIH Molecular Libraries Probe Production Network [MLPCN]
NIH Chemical Genomics Center [NCGC]
Structural Genomics Consortium (SGC)
To each well of a 1,536w plate, 2ul of JMJD2A-Tudor (final 100nM) and 1ul biotinylated histone peptide methylated at Lys4 [b-H3(1-18)K4me3] (final 50nM) were added in 1x PBS buffer, pH 7.4, containing 0.01% Tween-20, using a nanoliter dispenser. Formation of a protein-peptide complex proceeded at room temperature for 30 min. A Kalypsys pin-tool transferred 23nl of library compound solution in DMSO to each well. Following a 30 min incubation of the protein-peptide complex with compounds at room temperature, a mixture of 40 µg/mL each streptavidin-coated donor and nickel chelate acceptor AlphaScreen beads (final 10 µg/mL) was added in a 1ul dispense for a final volume of 4ul, followed by a brief centrifugation (1000 rpm, 1 min). Plates were incubated protected from the light for 20 min at room temperature. Microplates were then read on an EnVision multilabel plate reader using the 1,536 plate HTS AlphaScreen aperture (excitation time 80 ms, measurement time 240 ms).
Potency is the fitted concentration of half-maximal effect; tags give direction and shape of the fitted curve.

Chain of UniProt O75164 (O75164 whole entry, looked up, the tested form may be a part): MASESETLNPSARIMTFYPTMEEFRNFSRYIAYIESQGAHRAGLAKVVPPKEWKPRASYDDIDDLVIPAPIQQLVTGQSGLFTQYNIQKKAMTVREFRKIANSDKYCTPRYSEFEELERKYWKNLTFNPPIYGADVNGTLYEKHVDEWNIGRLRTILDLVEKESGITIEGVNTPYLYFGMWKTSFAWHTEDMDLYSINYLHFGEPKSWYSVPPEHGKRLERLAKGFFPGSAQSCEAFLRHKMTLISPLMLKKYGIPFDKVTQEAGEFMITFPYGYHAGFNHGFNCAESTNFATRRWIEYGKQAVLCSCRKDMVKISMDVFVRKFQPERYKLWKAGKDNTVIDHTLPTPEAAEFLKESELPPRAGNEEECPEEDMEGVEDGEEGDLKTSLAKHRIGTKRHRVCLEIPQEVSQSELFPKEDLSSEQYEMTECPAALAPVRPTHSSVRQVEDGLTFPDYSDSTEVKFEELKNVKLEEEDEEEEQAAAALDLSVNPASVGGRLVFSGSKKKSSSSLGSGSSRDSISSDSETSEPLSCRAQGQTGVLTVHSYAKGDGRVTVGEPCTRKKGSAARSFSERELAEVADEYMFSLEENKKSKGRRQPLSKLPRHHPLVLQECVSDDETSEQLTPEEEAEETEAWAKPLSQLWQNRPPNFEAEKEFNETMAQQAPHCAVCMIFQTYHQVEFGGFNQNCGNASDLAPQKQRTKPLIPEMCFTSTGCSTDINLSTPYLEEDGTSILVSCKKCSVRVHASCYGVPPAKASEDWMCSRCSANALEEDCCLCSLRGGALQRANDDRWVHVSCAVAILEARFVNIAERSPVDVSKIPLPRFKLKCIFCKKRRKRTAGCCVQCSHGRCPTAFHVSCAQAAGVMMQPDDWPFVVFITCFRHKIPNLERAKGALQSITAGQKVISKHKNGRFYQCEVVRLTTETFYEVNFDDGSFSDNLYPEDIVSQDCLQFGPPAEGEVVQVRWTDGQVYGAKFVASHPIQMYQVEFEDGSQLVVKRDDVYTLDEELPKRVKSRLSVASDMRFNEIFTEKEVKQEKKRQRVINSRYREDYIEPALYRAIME

| SMILES | Potency |
| --- | --- |
| Cc1ccc(CN2CCSCC2)cc1 | active: 22.4 µM |
| O=C(CCN1CCc2ccccc2CC1)c1ccc2c(c1)OCCO2 | inconclusive: 50.1 µM [inhibitor, partial curve] |
| COc1ccc(-c2cnc(N)nc2-c2ccc(OC)cc2O)cc1 | inconclusive: 44.7 µM [inhibitor, partial curve] |
| COc1ccc(OC)c(S(=O)(=O)Oc2ccc(N)c3ccccc23)c1 | inconclusive: 44.7 µM [inhibitor, partial curve] |
| Oc1ccc(N2CCN(c3ccnc4cc(Cl)ccc34)CC2)cc1 | active: 56.2 µM |
| COc1ccc(NC(=O)c2cnc(SC)n2-c2ccc(F)cc2)c(OC)c1 | inconclusive: 63.1 µM [inhibitor, partial curve, poor fit] |
| Cc1ccccc1NC(=O)Cc1nnc(SCC(=O)NC2=NCCS2)n1C | active: 25.1 µM |
| O=C1c2ccccc2CN1C(CO)Cc1ccccc1 (stereo not given) | inactive |
| COc1cc(NC(=O)CCCc2c[nH]c3ccccc23)cc(OC)c1 | inconclusive: 10 µM [inhibitor, full curve] |
| Cc1ccc2c(CC(=O)Nc3cc(C(F)(F)F)ccc3Cl)coc2c1C | inconclusive: 44.7 µM [inhibitor, partial curve] |
| NC(=O)CC(NC(=O)Cc1ccc(Cl)cc1)c1ccc(NCCOc2ccccc2)c([N+](=O)[O-])c1 (stereo not given) | inactive |
| O=C(O)c1cc(S(=O)(=O)N2CCN(C(c3ccccc3)c3ccccc3)CC2)ccc1Cl | inconclusive: 31.6 µM [inhibitor, single point] |
| COc1cccc(C(=O)Nc2nnc(S(=O)(=O)N3CCOCC3)s2)c1 | inconclusive: 8.91 µM [inhibitor, full curve] |
| CCCC(c1nnnn1CCOC)N1CCN(C(=O)c2ccco2)CC1 (stereo not given) | inconclusive: 79.4 µM [inhibitor, partial curve] |
| CN1C(=O)/C(=C/c2cccc(Cl)c2)Sc2ccc(C(=O)NCc3cccnc3)cc21 | inconclusive: 50.1 µM [inhibitor, partial curve] |
| Cc1cc(=O)[nH]c(-n2nc(C)cc2C)n1 | inconclusive: 2.82 µM [inhibitor, full curve, poor fit] |
| COc1ccccc1C(=O)NC(CCSC)C(=O)OCC(=O)NC(=O)NCc1ccco1 (stereo not given) | inconclusive: 56.2 µM [inhibitor, partial curve] |
| COc1ccc(NC2CCCN(C(=O)C3(C)CCCCC3)C2)cc1OC (stereo not given) | inconclusive: 89.1 µM [inhibitor, partial curve] |
| NC(N)=NCC(O)CN(c1ccccc1)c1ccccc1 (stereo not given) | inconclusive: 14.1 µM [inhibitor, partial curve] |
| COc1ccc(-c2noc(COc3ccc4c(c3)OCO4)n2)cc1 | inactive |
| Oc1ccc(-c2csc(-c3cccnc3)n2)cc1O | active: 7.08 µM |
| O=C(CSc1ccc(Cl)cc1)Nc1cccc(-c2nc3ccccc3[nH]2)c1 | inconclusive: 44.7 µM [inhibitor, partial curve] |
| CCn1c(CC(=O)Nc2ccc(F)cc2)nnc1SCC(=O)NC1CCCC1 | inactive |

| SMILES | Potency |
| --- | --- |
| Cc1cc(/C=C2\SC(=O)N(C)C2=O)c(C)n1-c1ccc(S(N)(=O)=O)cc1 | inactive |
| CN(C(=O)c1cc2ccccc2oc1=O)C1(C)CCS(=O)(=O)C1 (stereo not given) | inactive |
| COc1ccccc1/C(C)=N/NC(=S)NCc1ccccc1 | inconclusive: 50.1 µM [inhibitor, partial curve] |
| COc1ccc(-n2c(Cc3cccn3C)nnc2SCC(=O)Nc2cccc(F)c2)cc1 | inconclusive: 28.2 µM [inhibitor, partial curve, poor fit] |
| CCOc1ccc(S(=O)(=O)Nc2ccc3c(c2)c(C(C)=O)c(C)n3S(=O)(=O)c2ccc(OCC)cc2)cc1 | inactive |
| COC(=O)/C=C1/SC(=NC(=O)c2ccc(F)cc2)NC1=O | inactive |
| Cc1ccc(NC(=O)CN2CCOCC2)cc1S(=O)(=O)N1CCCCC1 | inactive |
| CN1C=CC=C/C1=C1/SC(=S)N(Cc2ccccc2)C1=O | inconclusive: 44.7 µM [inhibitor, single point] |
| O=C(N/N=C/c1ccccc1O)c1cccc(C(F)(F)F)c1 | inconclusive: 79.4 µM [inhibitor, partial curve] |
| COCc1cc(C)nc(SCC(=O)Nc2ccc3c(c2)OCCO3)c1C#N | inconclusive: 35.5 µM [inhibitor, partial curve] |
| COc1ccc(C(=O)C(=NNc2ccccc2)c2ccc(OC)cc2)cc1 | active: 44.7 µM |
| CCCOc1ccc(-c2nn(-c3ccccc3)cc2/C=C2\SC(=S)N(C3CCS(=O)(=O)C3)C2=O)cc1 (stereo not given) | inactive |
| C=CCOc1ccc(CN(C)C(=O)CNC(=O)c2ccc(-c3ccccc3)cc2)cc1 | inconclusive: 3.55 µM [inhibitor, single point] |
| CN1CCN(C2Cc3ccc(F)cc3Sc3cc(F)c(Cl)cc32)CC1 (stereo not given) | inconclusive: 56.2 µM [inhibitor, partial curve] |
| Cc1ccc(C)c(NC(=O)CN(C)C(=O)c2sccc2C)c1 | inactive |
| CC(=O)OCC[n+]1c(C)n(-c2ccccc2)c2ccc(Cl)cc21 | inconclusive: 25.1 µM [inhibitor, single point] |
| COc1cccc(C=O)c1OCCCOc1cccc2cccnc12 | inactive |
| N#Cc1c(NC(=O)/C=C/C(=O)O)sc2c1CCN(Cc1ccccc1)C2 | inconclusive: 50.1 µM [inhibitor, partial curve] |
| CCSc1nnc(-c2ccc(S(=O)(=O)N3CCOCC3)cc2)n1C | inconclusive: 1.12 µM [inhibitor, full curve] |
| Cc1ccc(-c2nnc(N3CCN(C(=O)CN4C(=O)c5ccccc5C4=O)CC3)c3ccccc23)cc1 | inconclusive: 100 µM [inhibitor, single point] |
| Cc1nc2nc(C)c(CCC(=O)NCCCN3CCN(c4cccc(Cl)c4)CC3)c(C)n2n1 | inactive and inconclusive: 79.4 µM [inhibitor, single point] |
| N/C(=N\NC(=O)c1ccccc1)c1cc2ccccc2oc1=O | inconclusive: 11.2 µM [inhibitor, full curve, poor fit] |
